Measured values as given in PubChem BioAssay AID488969 (Vanderbilt High Throughput Screening Facility, 2010).
Whole data set: some 110,000 compounds, median “z-score” near -0.1, cut for the highest 2% near 2. This is one part of the list. Active and inactive are the calls of the source.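 How the source made its calls: active means z-score in the third read window above 3 or below -3; inactive means the rest.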

The molecules below were run against Metabotropic glutamate receptor 8 (Rattus norvegicus) (UniProt P70579) (assay: rat mGluR8 modulators via GIRK flux, primary screen, cell-based, thallium flux, HTS (AID 488969)). Conditions: HEK293 rat mGluR8, GIRK (G protein-gated inwardly rectifying potassium channel) thallium flux, FluoZin2; at 10 µM; stronger effect = higher value; submaximal glutamate (EC20) added with thallium.
Sequence of UniProt P70579 (P70579 whole entry, looked up): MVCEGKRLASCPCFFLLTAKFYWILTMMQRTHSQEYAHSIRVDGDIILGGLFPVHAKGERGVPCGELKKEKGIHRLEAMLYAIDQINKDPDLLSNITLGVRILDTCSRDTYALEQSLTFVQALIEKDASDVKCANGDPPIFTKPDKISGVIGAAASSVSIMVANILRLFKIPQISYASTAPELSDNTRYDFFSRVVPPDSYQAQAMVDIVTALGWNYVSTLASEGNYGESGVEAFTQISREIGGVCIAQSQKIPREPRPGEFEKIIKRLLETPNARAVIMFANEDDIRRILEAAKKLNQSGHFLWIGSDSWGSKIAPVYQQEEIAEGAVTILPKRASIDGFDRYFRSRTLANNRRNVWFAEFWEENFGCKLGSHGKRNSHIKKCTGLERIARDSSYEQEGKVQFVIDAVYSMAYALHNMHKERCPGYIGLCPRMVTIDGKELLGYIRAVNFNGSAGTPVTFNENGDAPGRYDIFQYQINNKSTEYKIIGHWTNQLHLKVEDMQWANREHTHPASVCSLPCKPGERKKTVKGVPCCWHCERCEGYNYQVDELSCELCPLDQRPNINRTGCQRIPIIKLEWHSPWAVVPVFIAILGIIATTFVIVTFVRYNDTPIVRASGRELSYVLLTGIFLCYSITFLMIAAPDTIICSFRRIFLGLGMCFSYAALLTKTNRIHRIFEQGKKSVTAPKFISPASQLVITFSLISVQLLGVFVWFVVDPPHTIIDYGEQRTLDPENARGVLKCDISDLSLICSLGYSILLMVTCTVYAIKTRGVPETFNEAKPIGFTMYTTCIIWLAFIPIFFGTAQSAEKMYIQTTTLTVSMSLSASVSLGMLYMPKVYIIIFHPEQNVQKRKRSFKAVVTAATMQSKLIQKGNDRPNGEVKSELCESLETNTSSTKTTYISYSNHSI

Row | Compound | z-score
1 | O=[N+]([O-])c1ccc(/C=N/n2c(C3CCCCC3)n[nH]c2=S)cc1 | 0.116
2 | O=C(N/N=C/c1ccc2cccc(OCc3ccccc3)c2n1)c1ccc(Cl)cc1 | 0.327
3 | CCOc1ccc(N2C(=O)CC(Sc3nccc(C)n3)C2=O)cc1 (stereo unspecified) | -0.287
4 | Cc1ccc(C)c(OCCCC(=O)Nc2ccc(N3CCOCC3)cc2)c1 | 0.115
5 | CCN(CC)S(=O)(=O)c1ccc(OC)c(NC(=O)C(Cc2ccccc2)N2C(=O)c3ccccc3C2=O)c1 (stereo unspecified) | -0.425
6 | Cc1ccc(CC2CC(=O)N(CC(=O)O)C2=O)cc1 (stereo unspecified) | 0.135
7 | N#CC1(c2ccccc2)CCCN1C(=O)c1ccc(Br)cc1 (stereo unspecified) | -0.587
8 | Cc1cc(C)c2c(-n3cccc3)c(NC(=O)OCc3ccccc3)sc2n1 | -0.045
9 | O=C(O)C1CCCCC1C(=O)NCCc1c[nH]c2ccccc12 (stereo unspecified) | 0.809
10 | CCn1nc(C)c(NC(=O)/C=C/c2ccc(OC)c(COc3ccc(Cl)cc3Br)c2)c1C | -0.251
11 | CCOC(=O)C1CCCN(Cc2ccccc2Cl)C1 (stereo unspecified) | -0.216
12 | Cc1scc(C(=O)N/N=C/c2ccco2)c1C | -0.0599
13 | O=CN1N=C(c2ccccc2)CC1c1ccccc1[N+](=O)[O-] (stereo unspecified) | -0.461
14 | O=C(Nc1cccc(-c2nnc(-c3ccco3)o2)c1)C(c1ccccc1)c1ccccc1 | -0.291
15 | COc1ccc(-c2nnc(SCC#N)o2)cc1 | -0.0515
16 | Cc1cccc(-n2ccnc2SCC(=O)N2CCCc3ccccc32)c1C | 1.72
17 | CC(=O)Oc1ccc(C)cc1N1C(=O)c2ccc(C(=O)O)cc2C1=O | -0.326
18 | O=C(CSc1nnc(-c2ccc(O)cc2)o1)Nc1ccc2c(c1)OCCO2 | 0.0475
19 | CCCCC(=O)NC(=S)NNC(=O)CC | -0.321
20 | Cc1c(C(=O)N2CCc3ccccc3C2)oc2ccc(S(=O)(=O)N3CCCCCC3)cc12 | 0.0067
21 | CCCc1cc(=O)oc2cc(OCC(=O)Nc3cc(C)on3)ccc12 | -0.471
22 | CCCCC(CC)C(=O)NCC(C)NC(=O)C(CC)CCCC (stereo unspecified) | -0.251
23 | CCCc1cc2c(cc1NC(=O)c1ccc(C)cc1)OCO2 | -0.173

Row | Compound | z-score
24 | Nc1nc2nc(-c3ccc(Cl)cc3)cc(C(F)(F)F)n2n1 | -0.551
25 | O=C(NC1CCCCCCC1)C1c2ccccc2C(=O)N1Cc1ccco1 (stereo unspecified) | 0.11
26 | COc1ccc([N+](=O)[O-])cc1NC(=O)CSc1nc(C)c(C)c(C)n1 | -0.557
27 | CCN(CC)CCOC(=O)c1ccc(NC(=O)C(C)NC(=O)C23CC4CC(CC(C4)C2)C3)cc1 (stereo unspecified) | 0.0121
28 | O=C1OC(Nc2ccccn2)c2ccccc21 (stereo unspecified) | 0.127
29 | COc1cc(NC(=O)c2ccc(Br)o2)ccc1NC(=O)C(C)C | 0.351
30 | Cc1nc(S(=O)(=O)N2CCOCC2)c(C#N)c(C)c1Cl | -0.442
31 | CCN(CC)c1ccc(NC(=O)COC(=O)/C=C/c2nc3ccccc3s2)cc1 | 0.291
32 | Cc1ccc(-n2cc(C(=O)c3ccc4ccccc4c3O)cn2)cc1 | 0.561
33 | COc1ccc(S(=O)(=O)N2CCC(C(=O)NCC3CCCO3)CC2)cc1C (stereo unspecified) | -0.178
34 | CCOC(=O)c1[nH]c2ccc(OC)cc2c1NC(=O)c1cccc(OC)c1 | -0.567
35 | CCOc1ccc(/C=C/C(=O)NCCc2ccc(OC)c(OC)c2)cc1 | -0.114
36 | S=c1[nH]nc(-c2ccco2)n1/N=C/c1ccc(Cl)c(Cl)c1 | 1.59
37 | CN1CC(=O)N(CC(=O)Nc2ccc(F)cc2)c2ccccc2C1=O | 1.12
38 | O=C(CSc1nnc(-c2cccnc2)o1)Nc1ccccn1 | -0.103
39 | CCOC(=O)Cn1c(=O)oc2cc(S(=O)(=O)N3CCN(c4ccccn4)CC3)ccc21 | 0.514
40 | Cc1ccc(Nc2nc(-c3ccc(S(=O)(=O)N4CCOCC4)cc3)cs2)cc1Cl | -0.0144
41 | CN(C)S(=O)(=O)c1cccc(NC(=O)CCNC(=O)c2ccccc2Cl)c1 | -0.318
42 | CCCCC(=O)NC(=S)Nc1ccc(S(=O)(=O)N2CCCC2)cc1 | -0.211
43 | COc1ccc(CNC(=O)Nc2ccc(C)cc2)cc1 | 0.114
44 | CCCc1c(O)nc(SCCN(CC)CC)[nH]c1=O | 0.609
45 | CC1CCCN(C2=C(Cl)C(=O)N(c3cccc(Cl)c3)C2=O)C1 (stereo unspecified) | 0.0523
46 | CCCOc1ccc(CC(=O)NCC2(c3ccccc3)CCOCC2)cc1OC | -0.693

Row | Compound | z-score
47 | COC(=O)CN1C(=O)C2(OCCCO2)c2ccccc21 | -0.288
48 | O=C(Nc1ncc2c(n1)-c1ccccc1OC2)c1ccc(Cl)cc1 | -0.202
49 | COc1ccc(N2CCN(C(=O)CCCn3c(=O)[nH]c4ccsc4c3=O)CC2)cc1 | 0.0781
50 | O=C(Cn1c(=O)oc2ccccc21)Nc1nnc(N2CCCCCC2)s1 | -0.181
51 | CN(C)/C=C1\C(=O)Nc2ccccc21 | -0.00898
52 | Cc1cccc(NC(=S)NC(=O)c2cc(-c3ccccc3)nc3ccccc23)c1 | active: 5.14
53 | O=C(Oc1ccc2c3c(c(=O)oc2c1)CCC3)c1ccco1 | -0.36
54 | Cc1ccc(C(=O)/C=C/c2ccc(-c3ccccc3[N+](=O)[O-])o2)cc1 | -0.0214
55 | Cc1cc(S(=O)(=O)N2CCC(NC(=O)C34CC5CC(CC(C5)C3)C4)CC2)ccc1-n1cnnn1 | 0.165
56 | c1ccc(-c2nnc3ccc(N4CCC5(CC4)OCCO5)nn23)cc1 | -0.675
57 | CC(CC(=O)Nc1ccncc1)c1ccccc1 (stereo unspecified) | 0.044
58 | COc1cccc(/C=N/NC(=O)CC2C(=O)NN=C2C)c1O (stereo unspecified) | -0.287
59 | Cc1ccc2nc(Nc3ccc4[nH]c(=O)[nH]c4c3)c(-n3nc(C)cc3C)nc2c1 | 0.425
60 | O=C(COC(=O)C1c2ccccc2Oc2ccccc21)Nc1ccc2c(c1)OCO2 | -0.567
61 | CC(C)(C)C(=O)NCCCc1nc2ccccc2n1CCCOc1ccc(Cl)cc1 | -0.459
62 | O=C(CN1C(=O)NC2(CCCCCC2)C1=O)c1ccc2c(c1)OCCO2 | 1.64
63 | CCc1cc2cc(C)cc(C)c2nc1SCC(=O)N1CCCC1 | 0.461
64 | CC1(C)CC(=O)c2cc(OCC(=O)NCCN3CCCc4ccccc43)ccc2O1 | 0.681
65 | CCOc1ccc(S(=O)(=O)Nc2ccc(F)cc2)c(C)c1C | -0.0918
66 | CCOc1ccc(-c2nnn(CCC(=O)O)n2)cc1OC | -0.13
67 | C(=N\n1cnnc1)/c1cn(-c2cccs2)nc1-c1ccccc1 | -1.09
68 | COc1cccc(NC(=O)Cn2cc(C#N)c3ccccc32)c1 | 1.47
69 | Nc1ncc(Br)cc1Br | -0.156

Row | Compound | z-score
70 | O=C(NC1CCCCC1)N(Cc1cc2cc3c(cc2[nH]c1=O)OCCO3)C1CCCCC1 | 0.0096
71 | CCCCn1c(-c2ccoc2C)n[nH]c1=S | 0.216
72 | O=C(O)/C=C/c1ccc2c(-c3ccccc3)onc2c1 | -0.175
73 | CCn1c(COc2cccc(C)c2C)nnc1SCC(=O)N1CCN(c2ccc(OC)cc2)CC1 | -0.33
74 | Cn1ncc(C#N)c1NC(=O)C1CC(c2ccc(Cl)cc2)=NO1 (stereo unspecified) | -0.446
75 | CCCS(=O)(=O)N1CCC(C(=O)N2CCC(Cc3ccccc3)CC2)CC1 | -0.0167
76 | CC(=O)Nc1sc2c(c1CN1CCN(c3ccccn3)CC1)CCCC2 | -0.452
77 | CC(C)C(NC(=O)COc1ccc2ccccc2c1)C(=O)N/N=C/C=C/c1ccccc1 (stereo unspecified) | -0.0376
78 | Cc1cc(C(=O)Nc2sc(C)c(C)c2C#N)no1 | 1.33
79 | O=C(NCC1CCCO1)NC1(C(F)(F)F)Oc2ccccc2O1 (stereo unspecified) | 0.0113
80 | COc1cccc(C(=O)Nc2cc(NC(=O)c3ccco3)ccc2OC)c1 | -0.489
81 | CCCSc1nc2c(cnn2-c2ccc(C)cc2)c(=O)[nH]1 | -0.413
82 | Cc1ccc(C(=O)O)cc1S(=O)(=O)NCC1CCCO1 (stereo unspecified) | -0.726
83 | COc1ccc(NC(=O)c2ccc(COc3ccccc3)o2)cc1 | -0.00337
84 | COC1CCCCC1Nc1cc(C)cc(C)c1 (stereo unspecified) | -0.0687
85 | O=C(O)c1cnc(-c2ccccc2)nc1Sc1ccccc1Cl | active: -4.52
86 | Cc1nc(-c2cccc(S(=O)(=O)N3CCCCCC3)c2)cs1 | -0.195
87 | COc1cc(-c2nc(S(=O)(=O)c3ccc(C)cc3)c(N(C)C)o2)cc(OC)c1OC | -0.304
88 | Cc1cccc2nc(CSc3nc4ccc([N+](=O)[O-])cc4[nH]3)cn12 | -0.276
89 | COc1ccc(C)cc1S(=O)(=O)Nc1ccccc1C | -0.428
90 | CCOc1nc(C)ccc1-c1noc(CC)n1 | -0.223
91 | CC(=O)c1cc(C#N)c(SCc2ccccc2)nc1C | -0.00473
92 | CCOc1cc(NS(=O)(=O)c2ccccc2)c(OCC)cc1NC(=O)c1ccco1 | -0.135

Row | Compound | z-score
93 | CCC(=O)OCCn1c(Br)nc2c1c(=O)[nH]c(=O)n2C | -0.265
94 | COc1ccc(CNC(=O)C2CCN(C(=O)N(C)C)CC2)c(OC)c1 | 0.302
95 | Cc1cccc(CCNC(=O)CCc2nc(-c3ccccc3F)no2)c1 | 0.68
96 | COc1ccc(Cc2nnc(SCC(=O)Nc3ncc(C)s3)o2)cc1 | 0.0295
97 | CC(=O)c1ccc(Nc2c3c(c(C#N)c4nc5ccccc5n24)CCC3)cc1 | -0.15
98 | Cc1ccc(/C=C2/NC(=O)N(c3ccccc3)C2=O)o1 | 0.187
99 | COC(=O)C1=C(C)N(C)C(C)=C(C(=O)OC)C1c1ccc(C(=O)OC)cc1 | -0.73
100 | CCOC(=O)C1CCCN(C(=O)c2cnn3c(C(F)F)cc(-c4ccc(C)cc4)nc23)C1 (stereo unspecified) | -0.0995
101 | COc1ccc(Oc2nc(C)nc3c2oc2ccccc23)cc1 | -0.407
102 | CCC(C)[C@H](NC(=O)NCCCc1ccccc1)C(=O)OC (stereo partly specified) | -0.43
103 | COc1cc(OC)c(OC)cc1/C=N/NC(=S)NCC1CCCO1 (stereo unspecified) | 0.146
104 | COC(=O)c1cc(NC(=O)Nc2ccccc2OC)cc(C(=O)OC)c1 | -0.192
105 | Nc1nc(SCC(=O)NN(c2ccccc2)c2ccccc2)n[nH]1 | -0.0519
106 | O=[N+]([O-])c1cc(S(=O)(=O)N2CCCC2)ccc1N/N=C1/CCCc2ccccc21 | -0.262
107 | Cc1cc(C)n(C(=O)CNc2ccccc2Cl)n1 | 0.0593
108 | Cc1ccc(C(=O)NCC(C)(C)N2CCOCC2)s1 | 0.515
109 | CCCNc1cc(=O)n(C)c(=O)n1C | -0.217
110 | Cc1ccc(-c2cc(-c3nnc(SCC(=O)NCC(C)C)n3N)c3ccccc3n2)cc1 | -0.605
111 | COC(=O)c1sc(N2C(=O)C(O)=C(C(=O)c3ccc(C)o3)C2c2ccc(F)cc2)nc1C (stereo unspecified) | -0.787
